Reference: PubChem BioAssay AID248 (DTP/NCI, 2004)
Inconclusive results and toxic doses are left out. Some entries of the source have several records that differ or are many. The list is limited to them. The source may hold further records. The values listed for one entry are repeated measurements (runs, samples, wells, individuals or studies). Records carry a tag for their origin. A, B and so on number the origins entry by entry.

System: L1210 leukemia ip in BDF1 mice, survival T/C
Test: NCI In Vivo Anticancer Drug Screen. Data for tumor model L1210 Leukemia (intraperitoneal) in B6D2F1 (BDF1) mice
Conditions: endpoint: mean survival time, higher = longer survival

Cc1ccc(S(=O)(=O)OCCN(CCOS(=O)(=O)c2ccc(C)cc2)c2ccc(F)cc2)cc1
T/C (dose: 36.0 mg/kg/injection, schedule: Q01DX009 (ip), vehicle: saline): 120 % of control and 152 % of control

Nc1nc(=S)c2ncn(C3OC(CO)C(O)C3O)c2[nH]1 (stereo unspecified)
T/C (dose: 100.0 mg/kg/injection, schedule: Q01DX005 (ip), vehicle: saline): 106 % of control [sample A] and 160 % of control [sample B]

C(=N\Nc1nn[nH]n1)/c1ccncc1
T/C (dose: 200.0 mg/kg/injection, schedule: Q01DX009 (ip), vehicle: saline with Tween-80): 100 % of control and 191 % of control

CCCCn1cnc2c(=S)nc[nH]c21
T/C (dose: 128.0 mg/kg/injection, schedule: Q01DX009 (ip), vehicle: saline): 118 % of control and 154 % of control
T/C (dose: 128.0 mg/kg/injection, schedule: Q01DX Z (ip), vehicle: saline): 117 % of control and 150 % of control

CC(C)CC(NC(=O)c1ccccc1)C(=O)O (stereo unspecified)
T/C (dose: 400.0 mg/kg/injection, schedule: Q01DX009 (ip), vehicle: saline with Tween-80): 92 % of control and 159 % of control

Cc1ccc(NC(=O)N(CCCl)N=O)cc1NC(=O)c1ccccc1
T/C (dose: 118.0 mg/kg/injection, schedule: Q01DX009 (ip), vehicle: carboxymethylcellulose (CMC)): 103 % of control, 156 % of control, 174 % of control

N#Cc1cn(C2OC(CO)C(O)C2O)c2ncnc(N)c12 (stereo unspecified)
T/C (dose: 0.19 mg/kg/injection, schedule: Q01DX005 (ip), vehicle: saline): 107 % of control and 150 % of control

O=C(O)C1CSC(c2ccccc2)N1 (stereo unspecified)
T/C (dose: 400.0 mg/kg/injection, schedule: Q01DX001 (ip), vehicle: other): 91 % of control, 93 % of control, 156 % of control

NC(CSCc1ccc(N(CCCl)CCCl)cc1)C(=O)O (stereo unspecified)
T/C (dose: 13.0 mg/kg/injection, schedule: Q01DX Z (ip), vehicle: other): 115 % of control, 151 % of control, 156 % of control

O=c1[nH]cc(N(CCCl)CCCl)c(=O)[nH]1
T/C (dose: 2.2 mg/kg/injection, schedule: Q03DX006 (ip), vehicle: carboxymethylcellulose (CMC)): 90 % of control and 192 % of control
T/C (dose: 2.5 mg/kg/injection, schedule: Q07DX003 (ip), vehicle: carboxymethylcellulose (CMC)): 101 % of control and 152 % of control

CCCN(CCC)CCCOC(=O)c1ccc(N)cc1
T/C (dose: 100.0 mg/kg/injection, schedule: Q04DX003 (ip), vehicle: saline): 98 % of control, 100 % of control, 156 % of control

S=c1nc[nH]c2nc[nH]c12.[Ag]
T/C (dose: 25.0 mg/kg/injection, schedule: Q01DX009 (ip), vehicle: carboxymethylcellulose (CMC)): 118 % of control and 154 % of control

NC(CCSCc1ccc(N(CCCl)CCCl)cc1)C(=O)O (stereo unspecified)
T/C (dose: 18.0 mg/kg/injection, schedule: Q01DX Z (ip), vehicle: saline): 120 % of control, 155 % of control, 175 % of control
T/C (dose: 24.0 mg/kg/injection, schedule: Q01DX Z (ip), vehicle: saline): 122 % of control and 182 % of control
